According to PMC9512926:
These are yes or no findings as the source states them, for the method shown. In cells and extracts the contact can be indirect. Some entries that bind do so weakly or less than the wild type. One block for each binder: values may come before it.

Protein sequences, listed by entry. Tags and fused reporters are not part of them. Lines headed by an entry give the natural chain unless they say otherwise; changes in a name come on top. Residues count along the entry.
UniProt P35637: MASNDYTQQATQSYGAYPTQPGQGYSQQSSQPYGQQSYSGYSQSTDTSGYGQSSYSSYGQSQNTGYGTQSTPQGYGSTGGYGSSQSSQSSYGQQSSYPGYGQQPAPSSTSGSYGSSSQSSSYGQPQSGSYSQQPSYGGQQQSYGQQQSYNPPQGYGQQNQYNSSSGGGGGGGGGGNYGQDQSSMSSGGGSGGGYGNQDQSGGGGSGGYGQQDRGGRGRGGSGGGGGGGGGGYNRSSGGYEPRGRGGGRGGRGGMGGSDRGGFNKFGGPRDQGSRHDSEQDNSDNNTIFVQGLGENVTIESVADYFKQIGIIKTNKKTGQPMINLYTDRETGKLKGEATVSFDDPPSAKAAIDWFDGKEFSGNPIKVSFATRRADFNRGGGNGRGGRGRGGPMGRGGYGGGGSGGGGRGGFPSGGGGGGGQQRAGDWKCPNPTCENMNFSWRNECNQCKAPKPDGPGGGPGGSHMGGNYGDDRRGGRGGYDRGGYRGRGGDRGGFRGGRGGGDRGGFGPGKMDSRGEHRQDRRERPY
FLAG-FUS 1–359: residues 1-359 of P35637

Key:
[1] = target: FLAG-FUS P525L (UniProt P35637); experiment: co-IP; FLAG-IP after subcellular fractionation of transfected HEK293A cells: mitochondrial and cytosolic compartments; Western blotting
[2] = target: FLAG-FUS WT (fused in sarcoma, wild-type) (UniProt P35637); experiment: as above
[3] = target: FLAG-FUS R521C (UniProt P35637); experiment: co-IP; FLAG-IP (anti-FLAG M2 affinity gel, 3 h, 4 °C) of lysates of transfected HEK293A cells; lysis buffer 50 mM Tris-HCl pH 7.4, 150 mM NaCl, 0.5% TritonX-100, 10% glycerol; Western blotting for DHX30; in one panel 10 μg/ml RNase A was added to the cleared lysates (interaction decreased)
[4] = target: FLAG-FUS P525L (UniProt P35637); experiment: as above
[5] = target: FLAG-FUS 1–359 (UniProt P35637); experiment: as above
[6] = target: FLAG-FUS WT (fused in sarcoma, wild-type) (UniProt P35637); experiment: as above
[7] = target: FLAG-FUS P525L (SH-SY5Y, tetracycline-inducible stable line) (UniProt P35637); experiment: co-IP; FLAG-IP of SH-SY5Y cells with stable inducible expression of FLAG-FUS, 48 h post-induction; expression comparable to endogenous FUS; Western blotting
[8] = target: FLAG-FUS WT (SH-SY5Y, tetracycline-inducible stable line) (UniProt P35637); experiment: as above

binding [1]: binds | binding [2]: binds | binding [3]: binds | binding [4]: binds | binding [5]: no binding | binding [6]: binds
B1: DHX30, ATP-dependent RNA helicase (endogenous, HEK293A) (protein, UniProt Q7L2E3 1-1194)
chain: MFSLDSFRKDRAQHRQRQCKLPPPRLPPMCVNPTPGGTISRASRDLLKEFPQPKNLLNSVIGRALGISHAKDKLVYVHTNGPKKKKVTLHIKWPKSVEVEGYGSKKIDAERQAAAAACQLFKGWGLLGPRNELFDAAKYRVLADRFGSPADSWWRPEPTMPPTSWRQLNPESIRPGGPGGLSRSLGREEEEDEEEELEEGTIDVTDFLSMTQQDSHAPLRDSRGSSFEMTDDDSAIRALTQFPLPKNLLAKVIQIATSSSTAKNLMQFHTVGTKTKLSTLTLLWPCPMTFVAKGRRKAEAENKAAALACKKLKSLGLVDRNNEPLTHAMYNLASLRELGETQRRPCTIQVPEPILRKIETFLNHYPVESSWIAPELRLQSDDILPLGKDSGPLSDPITGKPYVPLLEAEEVRLSQSLLELWRRRGPVWQEAPQLPVDPHRDTILNAIEQHPVVVISGDTGCGKTTRIPQLLLERYVTEGRGARCNVIITQPRRISAVSVAQRVSHELGPSLRRNVGFQVRLESKPPSRGGALLFCTVGILLRKLQSNPSLEGVSHVIVDEVHERDVNTDFLLILLKGLQRLNPALRLVLMSATGDNERFSRYFGGCPVIKVPGFMYPVKEHYLEDILAKLGKHQYLHRHRHHESEDECALDLDLVTDLVLHIDARGEPGGILCFLPGWQEIKGVQQRLQEALGMHESKYLILPVHSNIPMMDQKAIFQQPPVGVRKIVLATNIAETSITINDIVHVVDSGLHKEERYDLKTKVSCLETVWVSRANVIQRRGRAGRCQSGFAYHLFPRSRLEKMVPFQVPEILRTPLENLVLQAKIHMPEKTAVEFLSKAVDSPNIKAVDEAVILLQEIGVLDQREYLTTLGQRLAHISTDPRLAKAIVLAAIFRCLHPLLVVVSCLTRDPFSSSLQNRAEVDKVKALLSHDSGSDHLAFVRAVAGWEEVLRWQDRSSRENYLEENLLYAPSLRFIHGLIKQFSENIYEAFLVGKPSDCTLASAQCNEYSEEEELVKGVLMAGLYPNLIQVRQGKVTRQGKFKPNSVTYRTKSGNILLHKSTINREATRLRSRWLTYFMAVKSNGSVFVRDSSQVHPLAVLLLTDGDVHIRDDGRRATISLSDSDLLRLEGDSRTVRLLKELRRALGRMVERSLRSELAALPPSVQEEHGQLLALLAELLRGPCGSFDVRKTADD

binding [7]: binds | binding [8]: binds
B2: DHX30, ATP-dependent RNA helicase (SH-SY5Y) (protein, UniProt Q7L2E3 1-1194)
chain: B1 chain
